About 150 (0.041%) of roughly 370,000 compounds were called active. The inconclusive results got no clear call from the source; some entries with a clear call stand among them for comparison. Calls come from the whole dose curve; as a rule, active = well fitted inhibition curve with a large enough effect; inconclusive = small, poorly fitted or top-dose-only effect; inactive = flat fitted curve, though single readings scatter. Potencies of inconclusive entries are left out as doubtful fits.
target: Beta-lactamase (Escherichia coli (strain K12)) (UniProt P00811); experiment: qHTS Inhibitors of AmpC Beta-Lactamase (assay with detergent); conditions: AmpC hydrolysis of nitrocefin, absorbance 480 nm, 0.01% Triton; activity change, negative = inhibition: at 114 µM (top of the series); note: nearly all actives have a fitted effect of over 25% in size;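 for activity change, negative = inhibition: 0% = no-compound wells and -100% = no-enzyme wells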
Procedure, shortened: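 AmpC (5.3 nM in the dispensed reagent) in 20 mM phosphate pH 7.0 with 0.01% (detergent screen) or 0.0001% Triton X-100 was preincubated with compounds for 15 min at room temperature. Nitrocefin was then added from an 800 uM solution, and hydrolysis was followed at 480 nm.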
Potency is the fitted concentration of half-maximal effect; tags give direction and shape of the fitted curve.

UniProt P00811, sequence (P00811 whole entry, looked up): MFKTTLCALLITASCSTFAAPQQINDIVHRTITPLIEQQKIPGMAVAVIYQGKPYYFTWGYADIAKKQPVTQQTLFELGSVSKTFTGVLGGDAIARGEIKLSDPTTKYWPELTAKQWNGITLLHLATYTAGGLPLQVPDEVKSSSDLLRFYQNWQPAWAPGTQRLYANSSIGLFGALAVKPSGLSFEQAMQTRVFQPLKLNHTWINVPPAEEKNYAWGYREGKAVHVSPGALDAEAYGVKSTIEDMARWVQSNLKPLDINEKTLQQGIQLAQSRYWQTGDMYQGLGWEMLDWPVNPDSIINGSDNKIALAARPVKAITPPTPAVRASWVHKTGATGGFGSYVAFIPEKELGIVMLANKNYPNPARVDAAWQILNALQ

SMILES | Potency | activity change, negative = inhibition
CN(C)CCCNC(=O)/C=C/c1ccc(OCc2c(F)cccc2Cl)cc1 | inconclusive [inhibitor, full curve] | –
COc1cccc(-c2nc3ccccc3c(=O)o2)c1 | inconclusive [inhibitor, full curve, poor fit] | –
c1ccc(Nc2nc(-c3ccncc3)cs2)nc1 | inconclusive [inhibitor, full curve, poor fit] | –
Cc1occc1C(=O)N1CCCC(Nc2ccc(F)cc2)C1 (configuration not stated) | inconclusive [inhibitor, full curve, poor fit] | –
COc1ccc(NC(=O)CSc2ccc3c(c2)OCCO3)cc1OC | – | inactive: -12.1%
Cc1cc(OCC(=O)Nc2c(C(=O)c3ccccc3)oc3ccccc23)cc(C)c1Cl | – | inactive: 20.2%
Cc1oc(-c2ccc(-c3ccccc3)cc2)nc1CN(C)C1CCOC1 (configuration not stated) | – | inactive: 0.119%
COc1cc2[nH]c(=O)n(CCC(=O)NCc3cccnc3)c(=O)c2cc1OC | inconclusive [inhibitor, partial curve, poor fit] | –
Cc1ccc(N2CCCn3c2nc2c3c(=O)n(CC(=O)OCc3ccccc3)c(=O)n2C)cc1C | inconclusive [inhibitor, partial curve, poor fit] | –
CCCCN(CC)CCCNC(=S)Nc1ccc2nc3n(c(=O)c2c1)CCCCC3 | inconclusive [inhibitor, full curve, poor fit] | –
CCCCSc1nnc(-c2ccc(C)cc2)c2ccccc12 | inconclusive [inhibitor, single point] | –
Cc1ccc(NP(=O)(Nc2ccc(C)cc2)Oc2ccccc2)cc1 | – | inactive: -18.4%
O=C(c1ccc(Cl)cc1)N1CCC(c2nc3ccccc3o2)CC1 | – | inactive: -3.31%
CC(NC(=O)CNC(=O)[C@@H]1Cc2ccccc2CN1)c1ccccc1 (some centres not stated) | inconclusive [inhibitor, full curve, poor fit] | –
COC(=O)c1cscc1S(=O)(=O)Cc1ccccc1 | – | inactive: -15.3%
O=C(NNS(=O)(=O)c1ccc(F)cc1)c1cnn(-c2ccccc2)c1C(F)(F)F | – | inactive: 12.6%
O=S(=O)(c1ccc(Br)cc1)N1CCCN(Cc2cccc(F)c2)CC1 | inconclusive [inhibitor, full curve] | –
CCN(c1ccc(OCC(=O)OCC(=O)c2c(N)n(C)c(=O)n(C)c2=O)cc1)S(=O)(=O)c1ccccc1 | inconclusive [inhibitor, partial curve, poor fit] | –
Cc1ccc(S(=O)(=O)Nc2ccc(S(=O)(=O)Nc3nccs3)cc2)c([N+](=O)[O-])c1 | inconclusive [inhibitor, full curve, poor fit] | –
COC(=O)c1ccc(CNC(=O)COC(=O)CC23CC4CC(CC(Br)(C4)C2)C3)cc1 | inconclusive [inhibitor, full curve] | –
C=CCn1c(C)nnc1SCC(=O)c1[nH]c(C)c(C(C)=O)c1C | inconclusive [inhibitor, full curve] | –

SMILES | Potency | activity change, negative = inhibition
CNC(=O)c1ccccc1Nc1ccc(SC(F)F)cc1 | inconclusive [inhibitor, partial curve, poor fit] | –
O=C(Nc1ccccc1C(=O)O)c1cccc(NC(=O)c2ccccc2Cl)c1 | inconclusive [inhibitor, partial curve, poor fit] | –
O=C(O)c1cccc(S(=O)(=O)Nc2ccc3[nH]c(=O)[nH]c3c2)c1 | – | inactive: -8.86%
COc1ccc(NC(=O)CSc2nc(O)cc(=O)[nH]2)c(OC)c1 | inconclusive [inhibitor, partial curve] | –
CCCn1nc(C(=O)NNC(=O)c2cccc(S(=O)(=O)NC(C)C)c2)c2ccccc2c1=O | – | inactive: -3.52%
O=C1C2CCCCN2C(=O)N1CCCCN1CCN(c2ccc([N+](=O)[O-])cc2)CC1 (configuration not stated) | inconclusive [inhibitor, partial curve, poor fit] | –
COC(=O)c1sc(NC(=O)CCCn2nc([N+](=O)[O-])cc2C)c(C(=O)OC)c1C | – | inactive: -8.05%
COc1ccc(C(=O)Cn2nnc(-c3ccccc3-n3cnnn3)n2)cc1 | inconclusive [inhibitor, full curve, poor fit] | –
Cn1c(=O)cc(SCC(=O)NCCC2=CCCCC2)c2cc(Cl)ccc21 | inconclusive [inhibitor, full curve, poor fit] | –
Cc1ccc(C2CC(c3cccs3)=NN2C(=O)CSC2=NCCS2)cc1 (configuration not stated) | – | inactive: -13.2%
Cc1ccc2nc(NC(=S)NC(=O)c3cccs3)sc2c1 | inconclusive [inhibitor, partial curve, poor fit] | –
COc1ccc(/C=N/NC(=O)c2[nH]c(C)c(C(=O)N/N=C/c3ccc(OC)cc3)c2C)cc1 | inconclusive [inhibitor, full curve, poor fit] | –
COc1cccc(NC(=O)CN2C(=O)NC3(CCCc4ccccc43)C2=O)c1 (configuration not stated) | inconclusive [inhibitor, partial curve] | –
COc1ccc(N(C(=O)c2snc(C(N)=O)c2N)C(C(=O)NC2CCCC2)c2ccc(OC)c(OC)c2)cc1 (configuration not stated) | inconclusive [inhibitor, full curve, poor fit] | –
O=c1[nH][nH]cc1C=Nc1ccc(Cl)cc1Cl | inconclusive [inhibitor, full curve] | –
O=C(O)Cc1sc(-c2cccnc2)nc1-c1ccc(Br)cc1 | inconclusive [inhibitor, partial curve, poor fit] | –
Cc1cc(N2CCN(C3CCCCC3)CC2)nc2cccc(O)c12 | inconclusive [inhibitor, full curve] | –
O=S(=O)(NCCC1=CCCCC1)c1cccc(S(=O)(=O)N2CCOCC2)c1 | – | inactive: 7.42%
O=C(NC1CC1)C1CCCN(C(=O)Nc2ccc(F)cc2)C1 (configuration not stated) | inconclusive [inhibitor, full curve] | –
Cc1cc(N2CCN(c3ccccc3)CC2)nc(N)n1 | inconclusive [inhibitor, full curve, poor fit] | –
COCCn1c(C)cc(C(=O)COC(=O)c2c(C)nn(Cc3ccccc3)c2C)c1C | inconclusive [inhibitor, partial curve, poor fit] | –

Reference: PubChem BioAssay AID485294 (National Center for Advancing Translational Sciences (NCATS), 2010)
